Data on 22 sequences can be found in the supplement of paper PMC6531468.

The list shows a part of the results. These are enrichments in a pooled selection; single values are uncertain. Scores sum up all selected molecules that hold the word; the word was not tested alone.

Common to all, as to assay: 6-mer SELEX enrichment z-score vs GST control; IMP3 is the RNA-binding protein IGF2BP3; higher = more enriched by binding
One assay relates to IMP3 RRM1-2. Particulars: construct: RRM1-2 (1-163); SELEX round: R2. On the procedure: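 SELEX-seq with GST-tagged IMP3 RRM1-2 (Met1-Asn163) and an N40 RNA pool, round 2. 6-mer enrichment z-score normalised to GST SELEX. RNA written as DNA (T = U).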
Sequence of IMP3 RRM1-2 (chain, as listed by the source): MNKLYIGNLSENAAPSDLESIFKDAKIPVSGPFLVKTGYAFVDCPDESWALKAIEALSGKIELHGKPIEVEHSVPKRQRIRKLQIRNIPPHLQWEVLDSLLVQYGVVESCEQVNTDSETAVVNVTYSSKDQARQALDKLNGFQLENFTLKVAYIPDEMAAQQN
The next assay has as its system IMP3 KH3-4. As to conditions: construct: KH3-4 (377-579); SELEX round: R4. On the procedure:
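SELEX-seq with GST-tagged IMP3 KH3-4 (Pro377-Lys579) and an N40 RNA pool, round 4. 6-mer z-score of sequence-tag enrichment normalised to the corresponding GST SELEX round; RNA k-mers written as DNA (T for U).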

The next assay concerns the target IMP3 full-length (UniProt O00425). Particulars: construct: FL IMP3 (1-579); SELEX round: R4. The protocol:
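SELEX-seq with GST-tagged full-length IMP3 and an N40 RNA pool, round 4. Each 6-mer is scored as an enrichment z-score of sequence tags containing it, normalised to the matching GST SELEX round. RNA written as DNA (T = U).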

In another assay the test system is IMP3 KH1-2. As to conditions: construct: KH1-2 (164-376); SELEX round: R4. The protocol:
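SELEX-seq with GST-tagged IMP3 KH1-2 (Pro164-Phe376) and an N40 RNA pool, round 4 (stringent 300/600 mM KCl washes). 6-mer z-score of sequence-tag enrichment normalised to the corresponding GST SELEX round; RNA k-mers written as DNA (T for U).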

Sequence of IMP3 KH3-4 (chain, as listed by the source): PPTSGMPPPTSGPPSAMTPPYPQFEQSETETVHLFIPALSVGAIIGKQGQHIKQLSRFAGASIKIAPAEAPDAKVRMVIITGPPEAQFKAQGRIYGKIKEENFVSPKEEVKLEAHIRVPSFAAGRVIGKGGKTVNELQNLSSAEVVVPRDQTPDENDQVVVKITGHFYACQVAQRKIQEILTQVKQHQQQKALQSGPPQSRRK
Sequence of UniProt O00425 (O00425 whole entry): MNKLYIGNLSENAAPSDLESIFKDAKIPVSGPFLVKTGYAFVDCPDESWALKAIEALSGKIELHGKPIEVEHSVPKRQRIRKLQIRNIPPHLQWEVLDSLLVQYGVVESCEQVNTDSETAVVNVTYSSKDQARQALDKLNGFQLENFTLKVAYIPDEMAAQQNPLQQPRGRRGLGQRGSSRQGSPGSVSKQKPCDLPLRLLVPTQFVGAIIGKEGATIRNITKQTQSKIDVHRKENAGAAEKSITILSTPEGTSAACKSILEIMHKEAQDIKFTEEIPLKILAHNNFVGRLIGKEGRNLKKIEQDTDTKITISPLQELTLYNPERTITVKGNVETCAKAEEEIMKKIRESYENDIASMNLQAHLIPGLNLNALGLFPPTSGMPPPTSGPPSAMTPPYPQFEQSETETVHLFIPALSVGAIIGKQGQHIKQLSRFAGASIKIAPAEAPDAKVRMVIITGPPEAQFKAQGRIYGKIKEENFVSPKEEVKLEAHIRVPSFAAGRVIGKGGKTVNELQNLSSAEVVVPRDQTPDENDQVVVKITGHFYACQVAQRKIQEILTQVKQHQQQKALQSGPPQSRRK
Sequence of IMP3 KH1-2 (chain, as listed by the source): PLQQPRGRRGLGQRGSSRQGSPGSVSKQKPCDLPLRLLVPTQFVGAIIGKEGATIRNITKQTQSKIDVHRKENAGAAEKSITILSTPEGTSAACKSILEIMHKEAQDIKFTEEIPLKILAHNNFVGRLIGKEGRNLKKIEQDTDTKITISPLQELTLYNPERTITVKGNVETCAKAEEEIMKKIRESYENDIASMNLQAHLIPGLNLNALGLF

Take TTTGAA: the “6-mer SELEX enrichment z-score” value in the assay on IMP3 RRM1-2 was -0.547; in the assay with IMP3 KH3-4, 1.

For the sequence AGGCGA, the “6-mer SELEX enrichment z-score” value was 0.568 with IMP3 full-length, -0.086 with IMP3 KH1-2 and 0.23 in the assay with IMP3 KH3-4.

As for CAGAAT, the “6-mer SELEX enrichment z-score” value with IMP3 full-length was 0.46; with IMP3 KH1-2, 0.726; with IMP3 KH3-4, 0.916.

Turning to CGGCAC, the “6-mer SELEX enrichment z-score” value in the assay with IMP3 KH1-2 turned out to be 1.97; in the assay on IMP3 KH3-4, 1.96.

Take CAGCGG: the figures for the “6-mer SELEX enrichment z-score” value in the assay with IMP3 RRM1-2, with IMP3 KH1-2 and in the assay with IMP3 KH3-4 were -0.002, 0.226 and 0.382, respectively.

ATAACA: the “6-mer SELEX enrichment z-score” value in the assay with IMP3 full-length was found to be 1.82.

Consider CTCGGC, for which the “6-mer SELEX enrichment z-score” value was determined as 1.45 in the assay with IMP3 full-length, 0.114 with IMP3 KH1-2 and 0.067 in the assay on IMP3 KH3-4.

Regarding AGCTCG, the “6-mer SELEX enrichment z-score” value in the assay with IMP3 full-length was 0.173; in the assay on IMP3 KH1-2, -0.545; in the assay on IMP3 KH3-4 it was -0.462.

Take TTAGCT: the results for the “6-mer SELEX enrichment z-score” value in the assay with IMP3 full-length and with IMP3 KH3-4 were 0.085 and 0.331, respectively.

As for TTTATC, the “6-mer SELEX enrichment z-score” value was determined as 0.295 with IMP3 full-length, 0.793 in the assay with IMP3 KH1-2 and 0.935 in the assay with IMP3 KH3-4.

For AGGAGC, the results for the “6-mer SELEX enrichment z-score” value with IMP3 full-length, with IMP3 KH1-2 and in the assay on IMP3 KH3-4 were 0.003, -0.647 and -0.533, respectively.

As to TGCCCT, the “6-mer SELEX enrichment z-score” value in the assay on IMP3 KH1-2 is -0.866; with IMP3 KH3-4, -1.11.

As to ACACAT, the “6-mer SELEX enrichment z-score” value in the assay on IMP3 KH3-4 was 2.75.

In the case of AGCCGC, the “6-mer SELEX enrichment z-score” value in the assay with IMP3 full-length is 0.456; in the assay with IMP3 KH1-2, 0.238; in the assay with IMP3 KH3-4, -0.255.

For the sequence GTAGTC, the “6-mer SELEX enrichment z-score” value in the assay on IMP3 RRM1-2 was 0.279; in the assay on IMP3 KH1-2, -0.366; with IMP3 KH3-4 it was -0.317.

Regarding CACACA, in the assay on IMP3 KH3-4, the “6-mer SELEX enrichment z-score” value came out at 1.92.

Take GCAGCT: the “6-mer SELEX enrichment z-score” value is 0.462 in the assay with IMP3 full-length, 0.05 in the assay with IMP3 KH1-2 and -0.065 with IMP3 KH3-4.

Regarding CCGGAG, the “6-mer SELEX enrichment z-score” value is -0.195 in the assay with IMP3 full-length, -0.549 in the assay with IMP3 KH1-2 and -0.712 in the assay with IMP3 KH3-4.

Consider AACACA, for which, in the assay on IMP3 KH3-4, the “6-mer SELEX enrichment z-score” value was determined as 2.57.

GACCAG: the “6-mer SELEX enrichment z-score” value with IMP3 full-length was -0.508; in the assay with IMP3 KH1-2 it was -0.476; in the assay with IMP3 KH3-4, -0.741.

As for TGCTTC, the figures for the “6-mer SELEX enrichment z-score” value in the assay on IMP3 RRM1-2, with IMP3 KH1-2 and in the assay with IMP3 KH3-4 were 0.343, 0.182 and 0.127, respectively.

GACCTC: the “6-mer SELEX enrichment z-score” value in the assay with IMP3 RRM1-2 was -0.45; in the assay with IMP3 KH1-2 it was -0.839; with IMP3 KH3-4, -1.18.
